Results taken from PubChem BioAssay AID492947 (National Center for Advancing Translational Sciences (NCATS), 2010).
About 80 (0.02%) of roughly 330,000 compounds were called active. Inconclusive means that the source gave no clear call. Such entries were picked first, then a sample of the others. Calls come from the whole dose curve; as a rule, active = well fitted activation curve with a large enough effect; inconclusive = small, poorly fitted or top-dose-only effect; inactive = flat fitted curve, though single readings scatter. Potencies of inconclusive entries are left out as doubtful fits.

What follows are compounds tested against Beta-2 adrenergic receptor (Homo sapiens) (UniProt P07550) (assay: qHTS assay of beta-arrestin-biased ligands of beta2-adrenergic receptor). Conditions: beta-arrestin recruitment to beta2AR, cell-based reporter; series mostly up to 46.1 µM; activation: at the top concentration.
Method in brief: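 Agonist activity is measured as luciferase luminescence downstream of beta-arrestin recruitment to recombinant beta2-AR in Tango cells. Exposure lasts 18 hr at 37 degrees C, and curves are categorized by r2, response size and activity.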
Note: nearly all actives have a fitted effect of over 65% in size.
Potency is the fitted concentration of half-maximal effect; tags give direction and shape of the fitted curve.
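Throughout, for activation: 0% = DMSO controls and full agonism = EC100 isoproterenol or metaproterenol.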

Chain of UniProt P07550 (P07550 whole entry, looked up): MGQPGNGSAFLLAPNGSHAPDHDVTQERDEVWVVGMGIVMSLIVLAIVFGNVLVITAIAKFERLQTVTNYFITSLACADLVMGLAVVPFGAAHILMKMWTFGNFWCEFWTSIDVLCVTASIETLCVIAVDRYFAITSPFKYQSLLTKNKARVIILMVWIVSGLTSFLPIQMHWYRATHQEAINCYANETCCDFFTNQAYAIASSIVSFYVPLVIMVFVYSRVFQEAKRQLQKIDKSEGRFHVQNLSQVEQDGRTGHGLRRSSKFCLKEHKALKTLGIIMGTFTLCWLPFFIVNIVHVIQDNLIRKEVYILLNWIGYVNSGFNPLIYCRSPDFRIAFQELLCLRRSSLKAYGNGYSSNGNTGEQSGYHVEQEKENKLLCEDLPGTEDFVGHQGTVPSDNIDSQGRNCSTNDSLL

Compound | Potency | activation
COc1ccccc1N1CCN(Cc2ccc(O)c3ncccc23)CC1 | inconclusive [rising, partial curve, poor fit] | 
Cc1cc(C)c(NC(=O)Nc2ccccc2)c(Cl)c1 | inconclusive [rising, single point] | 
CN1CCc2cccc3c2[C@H]1Cc1ccc(O)c(O)c1-3 | inconclusive [rising, single point] | 
CCC(NC(C)C)C(O)c1ccc(O)c(O)c1 (centres undefined) | active: 3.16 µM | 
COc1ccnc(Oc2ccc(F)cc2)c1C(=O)N/C=N/OCc1cccc(F)c1 |  | inactive: 0.0797%
CC(C)(O)C(=O)NN(C(=O)c1ccccc1)c1ccc2ccccc2c1 | inconclusive [rising, single point] | 
COc1cc(C(=O)OCC(=O)N2CCCCC2C)cc(NC(=O)c2cccs2)c1OC (centres undefined) |  | inactive: -0.347%
Cc1ccc(C(C)C)c(OCC(=O)OCC(=O)NC2CCS(=O)(=O)C2)c1 (centres undefined) |  | inactive: -0.0727%
Cc1ccc(CNC(=O)C2CCN(S(=O)(=O)N3CCCC3)CC2)cc1 |  | inactive: 0.323%
Oc1c(C(Nc2ccccn2)c2ccccn2)ccc2cccnc12 (centres undefined) | inconclusive [activator, partial curve] | 
Cc1ccc(C(=O)N/C(=C\c2ccco2)C(=O)NCCc2c[nH]c3ccccc23)cc1 | inconclusive [rising, single point] | 
Oc1ccc(CCNc2ncnc3ccc(Cl)cc23)cc1 |  | inactive: 0.0596%
CC1CN(C(=S)NC(=O)c2ccc([N+](=O)[O-])cc2)CC(C)O1 (centres undefined) | inconclusive [rising, single point] | 
O=C(Cn1cc(-c2nnnn2-c2ccc(Cl)cc2)c(=O)c2ccccc21)c1ccccc1 | inconclusive [rising, single point] | 
CCC(C)NS(=O)(=O)c1ccc(S(=O)(=O)N(CC(=O)Nc2ccccc2)Cc2ccco2)cc1 (centres undefined) |  | inactive: -0.029%
COc1ccc(OCCCC(=O)Nc2nc(-c3ccccn3)cs2)cc1 | inconclusive [activator, partial curve] | 
O=c1[nH]c(O)c(/C=C2\C=Nc3ccccc32)[nH]1 |  | inactive: -0.799%
C(=N\Nc1nc(-c2ccccc2)cs1)/c1ccco1 |  | inactive: -0.346%
CCC(NC(=O)CC[C@H]1O[C@@H](n2cc(C)c(=O)[nH]c2=O)C[C@@H]1O)c1ccccc1 (some centres undefined) |  | inactive: -0.409%
CC(NC(=O)CN1C(=O)c2ccccc2C1=O)c1ccccc1 (centres undefined) |  | inactive: -0.201%
CC(=O)c1c(C)n(CC(=O)NCc2ccc3c(c2)OCO3)c2ccccc12 |  | inactive: -0.199%
CC1=CC2=NC(=O)/C(=C/c3coc4ccccc4c3=O)C(=N)N2O1 | inconclusive [rising, single point] | 
Cn1c(CNC(=O)c2ccco2)nnc1SCC(=O)c1ccccc1 |  | inactive: 0.301%
OC(COCc1ccc(Cl)cc1)CN1CCc2ccccc2C1 (centres undefined) |  | inactive: -0.654%
CCN(CC)S(=O)(=O)c1ccc(NCc2ccccn2)nc1 |  | inactive: -0.795%
N#CC[C@H](Cc1ccccc1)N1CC[C@@H](O)CCC1=O | inconclusive [rising, single point] | 
CCCC(=O)NC(=S)Nc1ccc(Cl)cn1 | inconclusive [rising, single point] | 

Compound | Potency | activation
CC1c2ccccc2SC(CCCN(C)C)c2ccccc21 (centres undefined) |  | inactive: -0.932%
CN(C)NC(=S)Nc1ccc(Cl)cc1 | inconclusive [rising, single point] | 
O=C(COC(=O)c1cc(=O)c2ccccc2o1)Nc1ccc2ccccc2c1 | inconclusive [rising, single point] | 
CC(=O)c1sc(NC(=O)c2cc(S(=O)(=O)N3CCOCC3)ccc2F)nc1C |  | inactive: -0.985%
O=C(c1ccc(CN2CCOCC2)cc1)N1CCN(c2cccc(Cl)c2)CC1 | inconclusive [rising, single point] | 
Cc1cccc(NC(=S)N=Nc2c(O)n(CN3CCOCC3)c3ccccc23)c1C | inconclusive [activator, full curve] | 
Cc1csc(N/N=C/c2ccccn2)n1 |  | inactive: -0.107%
Cc1cc([N+](=O)[O-])nn1CCCC(=O)NC(C)c1ccccc1 (centres undefined) | inconclusive [rising, single point] | 
CCC1=Nc2cc(C(=O)NCc3ccco3)ccc2Sc2ccccc21 | inconclusive [rising, single point] | 
Cc1nn2c(COc3ccc(NC(=O)c4ccccc4Cl)cc3)nnc2c2ccccc12 | inconclusive [rising, single point] | 
Cc1nn2c(nc1=O)NNC2(C)C(C)(C)C (centres undefined) | inconclusive [rising, single point] | 
COc1cc(/C=C2\CC/C(=C\c3ccc(OCCO)c(OC)c3)C2=O)ccc1OCCO | inconclusive [rising, single point] | 
Cc1ccc(S(=O)(=O)CNC(=S)c2ccc3ccccc3c2)cc1 | inconclusive [rising, single point] | 
Cc1nc2ccccc2c(=O)n1/N=C/c1cc(Br)ccc1O |  | inactive: -0.801%
CC(NC(=O)NNC(N)=S)(C(F)(F)F)C(F)(F)F | inconclusive [rising, single point] | 
CCOC(=O)C1=C(CN2CCC(C)CC2)NC(=O)NC1c1ccc(Cl)cc1 (centres undefined) |  | inactive: 0.0564%
CCOc1ccc(S(=O)(=O)NCCC(=O)NC2CCC(C)CC2)cc1 (centres undefined) | inconclusive [rising, single point] | 
CC1(C)CC(=O)C2=C(C1)Nc1cc(C(=O)c3ccccc3)ccc1NC2c1ccccn1 (centres undefined) | inconclusive [rising, single point] | 
CCNC(=S)N/N=C(\C)c1ccco1 | inconclusive [rising, single point] | 
Cc1ccc(NC(=O)c2nc[nH]c2C(=O)NCCCCCNC(=O)OC(C)(C)C)cc1 |  | inactive: 0.278%
COc1cccc(/C=N/Nc2nc(Nc3ccccc3)nc(-n3nc(C)cc3C)n2)c1O | inconclusive [activator, full curve] | 
COc1ccc(CNC(=O)CN(C(=O)c2snc(C(N)=O)c2N)c2ccc(F)cc2)cc1 |  | inactive: 0.357%
CC(C)CC(=O)NC(=S)Nc1ccc(Cl)cn1 | inconclusive [rising, single point] | 
NNC(=S)NC1CCCCC1 | inconclusive [rising, single point] | 
Cc1ccccc1Cn1cnc2c(NS(C)(=O)=O)c(C)c(C)cc21 | inconclusive [rising, single point] | 
COc1cccc(C(NC(C)=O)c2ccc3cccnc3c2O)c1 (centres undefined) | inconclusive [rising, single point] | 
COc1cc2[nH]c(C(=O)NCC3CCCO3)cc2c(OC)c1OC (centres undefined) |  | inactive: 0.241%

Compound | Potency | activation
CN1C(=O)c2cccc3c(S(=O)(=O)Nc4ccc(O)c(C(=O)O)c4)ccc1c23 |  | inactive: -0.947%
CCOC(=O)c1c(C)[nH]c(N=Nc2cccc(OC)c2)c1C |  | inactive: -0.95%
Cc1ccn2c(Nc3ccc4c(c3)OCO4)c(-c3ccc(O)cc3)nc2c1 |  | inactive: 4.51%
OCCOCCN1CCN(C(c2ccccc2)c2ccc(Cl)cc2)CC1 (centres undefined) |  | inactive: -1.89%
Cc1ccc(C)c(NC(=S)c2ccccn2)c1 | active: 11.2 µM | 
O=C(N/N=C/c1sc2ccccc2c1O)c1cccc2ccccc12 |  | inactive: 0.159%
CC(=O)N(c1ccccc1)C(C)c1nc(C#N)c(C#N)nc1C (centres undefined) | inconclusive [rising, single point] | 
CCNc1cc(S(=O)(=O)C(F)(F)F)ccc1N | inconclusive [rising, single point] | 
COc1ccc(NC(=S)N2CCNC(=O)C2CC(=O)Nc2cccc(Cl)c2C)cc1 (centres undefined) | inconclusive [rising, single point] | 
CC(=O)NC(c1cccs1)c1cc(F)c2cccnc2c1O (centres undefined) | inconclusive [rising, single point] | 
S=c1nc(-c2ccccc2)[nH]c2ccc(Br)cc12 | inconclusive [rising, single point] | 
C=CCNC(=S)N/N=C/c1ccc(C(C)(C)C)cc1 | inconclusive [rising, single point] | 
CCN(CC)c1ccc2cc(/C(N)=N/NC(=O)c3cccs3)c(=O)oc2c1 | inconclusive [rising, single point] | 
Cc1ccc(NC(=S)NNC(C)(C)C)cc1 | active: 8.91 µM | 
S=c1[nH]c2cc(-c3ccccc3)ccc2o1 | inconclusive [rising, single point] | 
COc1ccc(C=C(c2nc3ccccc3s2)c2nc3ccccc3s2)cc1O | inconclusive [rising, single point] | 
COc1cc2[nH]c(=S)n(Cc3ccc(C)cc3)c(=O)c2cc1OC |  | inactive: -0.0064%
O=S1(=O)Nc2c(ccc3cccnc23)-c2ccccc21 | inconclusive [rising, single point] | 
Cc1ccc(C(=O)NCC(=O)OCc2csc(-c3ccccc3)n2)cc1 | inconclusive [rising, single point] | 
N#CC(C(=S)Nc1ccccc1)c1nc2ccccc2[nH]1 (centres undefined) | active: 1.78 µM | 
Cc1ccc(OCC(=O)N/N=C/C=C/c2ccco2)cc1 | inconclusive [rising, single point] | 
Cc1c(C(=O)Oc2cccc3cccnc23)cccc1[N+](=O)[O-] | inconclusive [rising, single point] | 
CCCc1cc(SCC(=O)Nc2c(C)n(C)n(-c3ccccc3)c2=O)n2c(nc3ccccc32)c1C#N | active: 3.55 µM | 
S=C(NNc1nc(Nc2ccccc2)nc(N2CCCCC2)n1)NC1CCCCC1 |  | inactive: -1.13%
O=S1(=O)CCOCCCN1Cc1ccccc1F |  | inactive: 0.503%
